The source of these data is publication PMC10668032.

Some of the results follow. At the low end of the ranking, values are background and their order means little.

The target of this test is SIX1-Q177R homeodomain (UniProt Q15475). As to the kind of experiment: universal protein binding microarray. The conditions noted are these: Universal all-10-mer PBM (8x60K, AMADID 030236), 300 nM GST-tagged protein, Alexa Fluor 488 anti-GST; buffer, salt, pH and temperature not stated; high values mean tight binding; most listed sequences are background and not binding sites; double strand, one strand shown.
ACAAAAGC: the binding signal was -0.255 E-score.
As for GGTCTCTA, the figure is -0.128 E-score; as for ATCGCTTA, -0.176 E-score; as for CGGCTTCA, -0.259 E-score.
With CTTAAACC the figure was 0.0467 E-score; with GTACATAA, -0.0595 E-score.
CCACGGAA: the binding signal worked out at 0.141 E-score.
On to GAATGGCC, for which the binding signal was -0.205 E-score.
As for GGGGCGCA, the binding signal turned out to be 0.00559 E-score.
Regarding TCAGCGCA, the binding signal is -0.189 E-score.
With CCGAAATC the figure was -0.166 E-score; with ACCTTGGA, 0.0007 E-score.
With TATCTTCA the figure was -0.111 E-score.
With GTGGAAAA, the binding signal is -0.0739 E-score.
With AGGATTTC, the binding signal is -0.164 E-score.
Turning to CGCCTCGA, the binding signal was -0.0502 E-score.
On to ACTGTTTG, for which the binding signal is -0.144 E-score.
As to ACGCTCTA, the binding signal was determined as 0.122 E-score.
With CATCAAAG the figure was -0.159 E-score; with ATTCCCCA, -0.0179 E-score; with ACGGCGTA, 0.0966 E-score.
On to CAGCCCGC, for which the binding signal was -0.148 E-score.
As for ATCTGGAG, the binding signal is 0.166 E-score.
On to AGGATCTC, for which the binding signal is -0.103 E-score.
As for CTATACTC, the figure is 0.0376 E-score.
With GGTAAAAA the figure was -0.19 E-score; with GGTCCTTA, -0.0396 E-score.
TAACGCCA: the binding signal worked out at 0.16 E-score.
As for ACATGTAT, the figure is -0.192 E-score; as for AGGTTGCG, -0.0164 E-score; as for ACACAGAG, 0.12 E-score.
For CCTTGAAG, the binding signal was -0.0733 E-score.
As for GGCCCCCA, the figure is -0.11 E-score.
As for ATCTGCAC, the figure is 0.0165 E-score; as for CGCTGGTC, 0.0211 E-score.
For GCCGCCGC, the binding signal is -0.219 E-score.
Consider CCGGGATC, for which the binding signal is 0.164 E-score.
With CCGGATGC the figure was -0.00094 E-score; with CATTACCA, -0.00976 E-score.
As for CGTGCCGA, the figure is 0.0313 E-score.
On to GTAGTAGA, for which the binding signal is 0.0222 E-score.
In the case of GAACGAGA, the binding signal is -0.222 E-score.
With GCGTTGAA the figure was 0.00428 E-score; with ATAATATA, -0.0123 E-score.
As for CGTCAATA, the figure is -0.141 E-score; as for GAGCAGTA, -0.16 E-score; as for ACAAGGGG, 0.185 E-score.
Consider GCAGAGGA, for which the binding signal is -0.0276 E-score.
Turning to CCCGGTGA, the binding signal is -0.0127 E-score.
As for AGGACCCC, the binding signal is 0.205 E-score.
As to GAGACTGA, the binding signal was -0.316 E-score.
In the case of AAGTCCGG, the binding signal is -0.157 E-score.
As for ACCATCGA, the figure is 0.0401 E-score.
As for ATAAAATG, the figure is -0.126 E-score; as for GGGGCGAC, -0.0502 E-score; as for CCGAAAAA, -0.0149 E-score.
With ACACTTGG, the binding signal was 0.329 E-score.
Regarding GGCACATA, the binding signal is -0.0815 E-score.
With ACGGCGTC the figure was -0.0211 E-score.
As for AAATCGAG, the figure is -0.034 E-score.
With ATTGCTTC the figure was 0.0173 E-score; with AACACTTC, 0.326 E-score; with ATTTACCA, -0.0462 E-score.
On to ACTAAATG, for which the binding signal came out at 0.0262 E-score.
With AACACCAA the figure was 0.467 E-score; with GAATAAGC, -0.0672 E-score.
ACTTAAGT: the binding signal is -0.214 E-score.
With AGTCACTA the figure was 0.0997 E-score; with GGGGTAAA, 0.29 E-score; with CTCTGCAG, -0.163 E-score.
With ATCAAGGC the figure was 0.0359 E-score.
As for ACTTGTAA, the figure is -0.0445 E-score.
For the sequence CACGGTGC, the binding signal came to 0.267 E-score.
In the case of CGCGAGGC, the binding signal is -0.0994 E-score.
Turning to TAAAACGA, the binding signal was -0.132 E-score.
As for CAGACTCG, the figure is -0.0491 E-score; as for CGGAAATC, -0.133 E-score.
With TATCCGCA the figure was 0.0207 E-score; with CAAATGTC, -0.0522 E-score; with AGTCTTAG, -0.0444 E-score.
As to AGGTGAAA, the binding signal was -0.221 E-score.
In the case of CTTGAGAA, the binding signal was -0.22 E-score.
As for AGACCAGG, the figure is -0.121 E-score.
Turning to TCGCCGCA, the binding signal is -0.0235 E-score.
As for AACCCATC, the binding signal was -0.201 E-score.
Regarding AACTGGTA, the binding signal worked out at 0.0649 E-score.
For the sequence CCCAAAGC, the binding signal was -0.00129 E-score.
With ATACGAAG the figure was -0.187 E-score; with TCGGGTCA, 0.197 E-score.
With AACTCGTA the figure was -0.146 E-score; with CAGTTTAC, 0.00233 E-score; with CGTCTTAA, -0.0921 E-score.
As for GATGGACC, the figure is -0.026 E-score; as for CGACGCTC, -0.206 E-score.
As for CCATAAAC, the binding signal is -0.0639 E-score.
With CCAGACGC the figure was 0.00929 E-score; with AATGGGCG, -0.0109 E-score; with GCGCACGC, 0.0592 E-score.
With AATGGCGA the figure was 0.0184 E-score.
As to TCTGGAAA, the binding signal is -0.0321 E-score.
With AACCATGG the figure was -0.14 E-score; with CACGTATC, 0.217 E-score.
Turning to AACTTCTT, the binding signal was -0.047 E-score.
Turning to CACCTGAG, the binding signal was 0.183 E-score.
With ACGTTAAC, the binding signal was -0.0185 E-score.
With ACATGAAT the figure was -0.0461 E-score; with ACAAATAG, -0.0901 E-score; with ATGTCGAA, -0.0169 E-score.
For the sequence CGGACCCA, the binding signal is 0.0716 E-score.
As for ACATCACG, the figure is -0.221 E-score.
GCTACGGA: the binding signal is -0.0581 E-score.
With AACTTGCC the figure was -0.185 E-score.
With AGTCGTCA the figure was -0.118 E-score; with GAGATCAA, -0.0475 E-score.
As for CCTTACTA, the figure is -0.0604 E-score; as for CATCGGAC, -0.041 E-score; as for ATTGCGCC, -0.244 E-score.
Consider TCAAGTGA, for which the binding signal is -0.128 E-score.
As for AGCCGAAT, the figure is -0.0686 E-score; as for CATCGAGA, -0.271 E-score.
As for AAATACGA, the figure is -0.00287 E-score; as for ACACAATC, 0.178 E-score.
As for ACGAGCTC, the figure is -0.0655 E-score; as for AGACGATG, -0.232 E-score.
As to AAGGTGGA, the binding signal was 0.102 E-score.
For CATGGGTA, the binding signal came to 0.143 E-score.
With ATAGGCAT the figure was -0.256 E-score; with AGGATCAT, 0.085 E-score.
With AACAAATC the figure was -0.0836 E-score; with CAACAATC, 0.00184 E-score.
With AATACTAC the figure was -0.117 E-score; with TACGGGCA, 0.0181 E-score; with GCCTCTAA, -0.0175 E-score.
As for AAAGGGCC, the binding signal was -0.0926 E-score.
In the case of CCGACGGC, the binding signal was -0.0384 E-score.
With AGCATATG the figure was -0.281 E-score; with CCTGTACA, 0.119 E-score.
With ATCTTAAG the figure was -0.298 E-score; with AATGCGCT, -0.0244 E-score.
Consider GTAAGAAA, for which the binding signal worked out at 0.155 E-score.
As for AGGCATAA, the figure is -0.0618 E-score; as for TAATAGTA, 0.0571 E-score; as for CCAACGGG, -0.0798 E-score.
For AAATTAAC, the binding signal is -0.0677 E-score.
As for GTGCTTCA, the figure is 0.0606 E-score; as for AGTGACTG, -0.124 E-score; as for ATGCGCAG, -0.152 E-score.
With ACCCTCAA, the binding signal was 0.133 E-score.
Take CGCTGGAA: the binding signal was -0.201 E-score.
Consider AAGTTATG, for which the binding signal is -0.29 E-score.
With CTTTCGAC, the binding signal is -0.171 E-score.
As for CGAGGAAG, the binding signal is -0.0847 E-score.
Consider GTAAAGAA, for which the binding signal was -0.105 E-score.
As to CATATAAC, the binding signal stood at 0.0553 E-score.
With AACGGCTA the figure was -0.284 E-score; with CCGCAGAG, -0.0683 E-score.
As for AAACCAGC, the figure is -0.233 E-score; as for CAGCTAAA, -0.0488 E-score.
As for GGGAAACA, the figure is 0.0993 E-score.
As to TCCAGCCA, the binding signal is -0.157 E-score.
As for ACGATCAA, the figure is -0.149 E-score; as for TACGGTGA, -0.147 E-score; as for AGTTTCCA, -0.176 E-score.
With TCAAGCCA, the binding signal is -0.126 E-score.
Turning to CAATGGAG, the binding signal is 0.0176 E-score.
With ATAACAAG the figure was -0.00902 E-score; with AGTCCACA, -0.046 E-score; with AGACGTAC, -0.195 E-score.
As for ACCCGCCA, the binding signal is 0.152 E-score.
As for GGTTGCGA, the figure is -0.145 E-score; as for ACGCGGAC, -0.11 E-score.
As for AACACGCC, the figure is 0.366 E-score.
